Experimental data published in the supplement of paper PMC10126150.
Sequences with one replicate were seen in a single cluster, so their values are uncertain.

test system: ATP; experiment: switch fluorescence ratio, 500 uM ATP over buffer (Cy3 cluster intensity, sum of 5 cycles each) (fold (ratio)); higher = stronger signal-on switching upon ATP binding; sequences stand for … in TCGTCGGCAGCGTCAGATGTGTATAAGAGACAGTTTTTTTTTTTTTTTTTTTTTTTTT…TC; settings: aptamer strand: ATP DNA aptamer (quencher-CACCTGGGGGAGTATTGCGGAGGAAGG + anchor), 100 nM annealed; ATP concentration: 500 uM; one replicate
How it was run: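 Clusters with intensities outside 100-1000 RFU were excluded. The remaining Cy3-labelled switching-strand clusters on a modified Illumina MiSeq flow-cell had been annealed to 100 nM quencher-labelled ATP aptamer and imaged in selection buffer, then after 15 min with 500 uM ATP at 22 °C, for five cycles separated by NaOH stripping and re-annealing. The fluorescence ratio, averaged per switch-domain sequence, is each cluster's summed target-cycle Cy3 intensity over its summed buffer-cycle Cy3 intensity.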
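Further: ATP exposure 15 min at 22 °C before imaging.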

Sequence	switch fluorescence ratio
TTATAGTTAC	1.08
TTATATAGCT	1.06
TTATATCCTT	0.992
TTATCAGATC	0.976
TTATCCAGGT	0.939
TTATCCGTAA	2.96
TTATCCTATT	0.998
TTATCGCAAG	1.22
TTATCGCCTA	0.998
TTATCGCGAG	0.969
TTATCGGATG	0.956
TTATCGGGCG	0.995
TTATCTATA	0.997
TTATCTGACT	0.982
TTATGACCCG	1.1
TTATGACTTG	1.01
TTATGAGTGG	1.01
TTATGAGTGT	1.02
TTATGATGGC	0.928
TTATGCGAAG	0.98
TTATGGCCCG	0.967
TTATGGCGAG	0.99
TTATGGGTAC	1.01
TTATGGTACG	1.05
TTATGTTGCT	0.98
TTATGTTTCG	1.01

Sequence	switch fluorescence ratio
TTATTAACCA	1.05
TTATTAATAA	1
TTATTACCTC	0.99
TTATTCCGAT	1.03
TTATTGACAA	1
TTATTGACT	1.05
TTATTGATTA	1.01
TTATTGGGTA	1
TTATTGTTGC	1.01
TTATTTCCT	1.04
TTATTTGGCG	0.95
TTATTTTCCC	1.03
TTATTTTCG	0.958
TTCAAACCGT	1.07
TTCAACGGCA	1.11
TTCAAGCAG	1.02
TTCAAGGG	0.968
TTCAATAATT	0.974
TTCAATTGCG	1.02
TTCAATTTTA	0.982
TTCACAGGTA	1.05
TTCACCCGA	1
TTCACGTAAC	1.56
TTCAGAACGA	1.02
TTCAGAAGTT	1.01
TTCAGAGACG	1.02

Sequence	switch fluorescence ratio
TTCAGGTAGC	1.04
TTCAGGTAT	0.966
TTCAGGTGTT	2.24
TTCAGTGCTA	1.03
TTCAGTTTGC	1.02
TTCATACGTC	1.08
TTCATACTAC	1.1
TTCATAGCTA	0.995
TTCATAGTTT	0.963
TTCATGAGCG	1.04
TTCATGTCAG	1.05
TTCATGTGAG	0.995
TTCATTACAT	1.02
TTCATTCAGC	1.02
TTCATTCGGC	1.02
TTCATTGGGT	0.999
TTCCAAGATT	1.55
TTCCAAGGTC	0.961
TTCCACACGG	1.05
TTCCACCAAT	2.75
TTCCACTGGG	1.1
TTCCACTTAG	1.05
TTCCAGGCCT	0.981
TTCCAGGTAG	1.76
TTCCAGTGCC	1.12
TTCCAGTTGT	1.03

Sequence	switch fluorescence ratio
TTCCATACTC	1.28
TTCCATCAGC	0.979
TTCCATCGCA	3.44
TTCCATCGGT	0.964
TTCCCATATG	1.53
TTCCCATTGT	1.27
TTCCCGAGCT	1.07
TTCCGAATAT	1.09
TTCCGACAGT	1.54
TTCCGCGGTT	1.1
TTCCGGACTT	1.24
TTCCGGCCGT	1.02
TTCCGGGAAT	1
TTCCGGGATA	1.31
TTCCGTACGC	1.59
TTCCGTATGC	1.32
TTCCGTCTGA	1.04
TTCCGTGGCT	1.03
TTCCTATGGC	1.01
TTCCTGCCAC	1.74
TTCCTGCCCA	1.12
TTCCTGCTAG	1.01
TTCCTTACCT	1.24
TTCCTTATCT	1
TTCCTTTGCT	1.32
TTCGAATTTG	1.03

Sequence	switch fluorescence ratio
TTCGACAAAA	1.32
TTCGACACCT	1.33
TTCGACATTT	0.974
TTCGAGTTAA	0.996
TTCGATGAG	1.01
TTCGATGTTT	0.969
TTCGATTATC	1
TTCGATTCCT	1.02
TTCGATTTCG	1.02
TTCGATTTTG	1.01
TTCGCCAGGT	1
TTCGCCATGC	2.67
TTCGCGACGA	1.09
TTCGCGCCTG	1.01
TTCGCGGCGG	1.01
TTCGCGTGCT	1.01
TTCGCTAAG	2.15
TTCGCTATGC	2.63
TTCGCTCATG	1.01
TTCGCTGGAA	5.37
TTCGGAAAAA	1.15
TTCGGACAGT	1.04
TTCGGAGTGA	1.4
TTCGGATACG	0.987
TTCGGCAGAT	0.989
TTCGGCATGG	1.04

Sequence	switch fluorescence ratio
TTCGGCTTTC	1.04
TTCGGGGCGA	1.01
TTCGGGTAGC	1.02
TTCGGGTGT	1.14
TTCGGTCGCA	1.04
TTCGGTGACG	1.03
TTCGGTGATA	0.998
TTCGGTTTGA	0.979
TTCGTAATGA	1.09
TTCGTAGAGT	0.955
TTCGTATGAG	1.05
TTCGTCAATT	1.03
TTCGTGACGG	1.01
TTCGTGTTG	0.998
TTCGTTAGTG	0.999
TTCGTTCCT	1.05
TTCGTTCCTT	0.977
TTCGTTCGGC	1.03
TTCGTTTACG	1
TTCGTTTGAG	1.01
TTCTAACAAG	0.992
TTCTAACAT	0.988
TTCTACACAA	1.77
TTCTACAGT	1.02
TTCTACCGC	1.25
TTCTACTGGT	0.96

Sequence	switch fluorescence ratio
TTCTAGATGA	0.955
TTCTAGGACA	1.02
TTCTATATAC	1.16
TTCTATTCGC	1.06
TTCTCCAGGT	1.82
TTCTCCTAGA	0.996
TTCTCGAAAT	1.03
TTCTCGCAG	1.11
TTCTCTAGGA	1.02
TTCTGACCAT	1.03
TTCTGAGGTC	0.993
TTCTGAGTCG	1.03
TTCTGAGTTG	0.959
TTCTGATTGG	0.978
TTCTGGACAG	0.993
TTCTGTCGTA	0.984
TTCTGTGCTG	0.979
TTCTTAGGAT	1.04
TTCTTCATCG	1.01
TTCTTCGCGC	1
TTCTTCTGGT	0.995
TTCTTGAGGA	0.966
TTCTTGCGAT	1.12
TTCTTGTGGC	0.984
TTCTTTGTTA	1.03
TTCTTTTGGA	0.967

Sequence	switch fluorescence ratio
TTGAAAGGCG	0.944
TTGAAATCCG	0.997
TTGAAATGGA	1
TTGAACCTGG	1.02
TTGAACGGTA	1.11
TTGAACGTA	1.08
TTGAAGCACC	1.35
TTGAAGCGCT	1.77
TTGAAGGGA	0.983
TTGACAACTA	1.18
TTGACACAAT	1.4
TTGACAGAGC	1.05
TTGACAGATG	0.993
TTGACATAAG	1.05
TTGACCCGGA	0.985
TTGACTAAGC	1.01
TTGACTACTC	0.963
TTGACTATCC	1.06
TTGACTGATA	1.02
